In PubChem BioAssay AID1477 (National Center for Advancing Translational Sciences (NCATS), 2009):
The campaign covered roughly 230,000 compounds. Fewer than 10 were called active. Inconclusive results, whose numbers are uncertain, are shown with a selection of clear calls. Calls come from the whole dose curve; as a rule, active = well fitted curve in the direction sought with a large enough effect; inconclusive = small, poorly fitted or top-dose-only effect, or effect the other way, or another doubt; inactive = no such curve, though single readings can be large or run the other way. Potencies of inconclusive entries are left out as doubtful fits.

target: Runt-related transcription factor 1 (Homo sapiens) + Core-binding factor subunit beta (Homo sapiens) (UniProt Q01196+Q13951); test: qHTS Assay for Compounds Blocking the Interaction Between CBF-beta and RUNX1 for the Treatment of Acute Myeloid Leukemia; details: AlphaScreen CBFb-His/RUNX1-biotin binding, biochemical; series mostly up to 59.8 µM
Summary of the method: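 Interaction loss through any mechanism counts as activity. Pre-formed complex of His-CBF-beta and biotin-RUNX1 (30 nM apiece) is incubated with compound 15 min, then with 50 ng nickel and 50 ng streptavidin beads for 90 min before AlphaScreen detection.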

Sequence of UniProt Q01196 (Q01196 whole entry, looked up): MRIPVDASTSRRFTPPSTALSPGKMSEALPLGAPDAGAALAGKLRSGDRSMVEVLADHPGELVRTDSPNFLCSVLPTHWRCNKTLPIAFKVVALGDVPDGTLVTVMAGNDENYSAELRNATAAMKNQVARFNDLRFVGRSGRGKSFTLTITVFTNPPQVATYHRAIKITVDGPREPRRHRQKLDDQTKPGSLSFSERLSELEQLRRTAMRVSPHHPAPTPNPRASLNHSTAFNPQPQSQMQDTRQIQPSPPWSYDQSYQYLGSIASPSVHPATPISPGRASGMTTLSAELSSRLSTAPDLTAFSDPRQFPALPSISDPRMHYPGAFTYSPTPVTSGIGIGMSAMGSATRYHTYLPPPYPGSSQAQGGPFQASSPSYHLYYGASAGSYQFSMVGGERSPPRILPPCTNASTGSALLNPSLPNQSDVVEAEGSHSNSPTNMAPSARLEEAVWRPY
Sequence of UniProt Q01196 (Q13951 whole entry, looked up): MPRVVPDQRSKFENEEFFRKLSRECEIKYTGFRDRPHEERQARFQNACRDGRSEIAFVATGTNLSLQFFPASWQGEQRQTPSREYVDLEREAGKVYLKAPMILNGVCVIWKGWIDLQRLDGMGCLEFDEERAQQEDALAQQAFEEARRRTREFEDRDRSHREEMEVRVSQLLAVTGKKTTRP

SMILES | Potency
Cc1cccc(-c2noc(CN(C(=O)/C=C/c3ccccc3Cl)C(C)C)n2)c1 | inconclusive [activator, partial curve, poor fit]
Oc1oc(-c2ccccc2)nc1C=Nc1cccc2ccccc12 | inconclusive [activator, partial curve]
Oc1ccc(N=Nc2ccc(Br)cc2)c(O)c1 | inconclusive [inhibitor, single point]
CCC(CC)C(=O)Oc1c(Sc2ccccc2[N+](=O)[O-])c(C)nn1C(C)(C)C | inactive
CCCNC(=O)C(=O)NCC1CCCN1CC (centres undefined) | inactive
CSc1ccc2c(c1)N(CCC1CCCCN1C)c1ccccc1S2 (centres undefined) | inconclusive [inhibitor, partial curve]
COc1ccc(NC(=O)COC(=O)CC2CC3CCC2C3)c([N+](=O)[O-])c1 (centres undefined) | inconclusive [inhibitor, partial curve]
NC1C=CC=C(C(=O)O)C1 (centres undefined) | inconclusive [inhibitor, single point]
COC(=O)C1=C(C)N(Cc2ccc(OC)cc2)C(=O)/C1=C\c1ccco1 | inconclusive [inhibitor, single point]
COc1ccc(C2CC(O)(c3ccccc3)Oc3cc(OC)c(OC)c(OC)c32)cc1 (centres undefined) | inconclusive [inhibitor, single point]
CC[C@H]1C(c2cccc(C)c2)=NN(c2ccccc2)[C@@H]1CO | inconclusive [activator, partial curve]
Cc1ccc(C)n1C(Cc1ccccc1)C(=O)O (centres undefined) | inconclusive [inhibitor, partial curve]
CCN(CC)c1ccc(/C=N/Nc2nc3ccccc3[nH]2)cc1 | inconclusive [inhibitor, single point]
Cc1ccccc1CN(c1ccc(C(=O)Nc2ccccc2C(=O)NCc2ccco2)cc1)S(C)(=O)=O | inconclusive [inhibitor, partial curve]
c1ccc(CN2c3ccccc3-c3nc4ccccc4n3C2c2ccccn2)cc1 (centres undefined) | inconclusive [activator, partial curve]
N#Cc1nc(Cc2cccc3ccccc23)oc1NCc1ccc(F)cc1 | inconclusive [inhibitor, single point]
Cc1cc(C(=O)NC(=S)Nc2ccccc2N2CCOCC2)ccc1[N+](=O)[O-] | inconclusive [inhibitor, partial curve]
COc1cc(C2Nc3c(F)cccc3C3C=CCC32)cc(Br)c1OC (centres undefined) | inconclusive [inhibitor, single point]
COc1ccccc1/C=N\Nc1ccccc1[N+](=O)[O-] | inconclusive [inhibitor, single point]
O=c1oc2c(-c3ccc([N+](=O)[O-])cc3)cc(O)cc2s1 | inactive
COC/C=C/C1=CC2=CC(=O)C(C)(OC(=O)c3cnc4ccccc4n3)C(=O)C2=CN1Cc1ccc(OC)cc1 (centres undefined) | inconclusive [inhibitor, full curve, poor fit]
O=C(NC(=S)Nc1cc([N+](=O)[O-])ccc1Cl)c1ccccc1 | inactive
COC(=O)C1=C(N)Oc2cc(C)[nH]c(=O)c2C1c1ccccc1OC (centres undefined) | inactive

SMILES | Potency
Cc1ccc(N2C(=O)C3N=NN(CC(=O)N4N=C(c5ccccc5)CC4c4ccccc4)C3C2=O)cc1 (centres undefined) | inactive
O=C(COc1ccc(Br)cc1)N1CCC(c2ccccc2)C1 (centres undefined) | inconclusive [activator, single point]
N=c1oc2c3c4c(cc2cc1C(=O)Nc1ccccc1)CCCN4CCC3 | inconclusive [activator, full curve]
Cc1ccc(S(=O)(=O)N(C)c2ccc(C(=O)N3CCc4ccccc4C3)cc2)cc1 | inactive
CCn1cc(/C=C(/C#N)S(=O)(=O)c2ccccc2)cn1 | inconclusive [inhibitor, partial curve, poor fit]
O=C(O)c1ccccc1C(=O)c1ccc(N2CCOCC2)c([N+](=O)[O-])c1 | inconclusive [inhibitor, single point]
C/C(=N\NC(=S)Nc1ccc(C(C)C)cc1)c1ccc2c(c1)OCO2 | inactive
CCOC(=O)c1sc2nc3c(SCCC(=O)O)cc(C(=O)c4cc(OC)ccc4O)cn3c(=O)c2c1C | inconclusive [inhibitor, single point]
Cc1nn(C2CCS(=O)(=O)C2)c(C)c1C=O (centres undefined) | inconclusive [activator, full curve, poor fit]
CCOC(=O)c1ccc(NC(=O)N(CC)CC)cc1 | inactive
Cc1cc(/C=N/n2cnnc2)c(C)n1-c1ccc(OCc2ccccc2F)cc1 | inconclusive [inhibitor, single point]
CCCCS(=O)(=O)Nc1ccc(Cc2ccncc2)cc1 | inactive
COc1cc(/C=N/NC(=O)c2cccnc2)ccc1OCC(=O)Nc1ccc(C)cc1 | inconclusive [activator, partial curve]
Cc1cccc(-c2noc(CN(C)S(=O)(=O)c3cc(Cl)ccc3Cl)n2)c1 | inconclusive [activator, single point]
CCN(CC)c1ccc(C=Nc2ccc(N(C)C)cc2)c(O)c1 | inconclusive [inhibitor, single point]
CC(=O)Oc1ccc2c(c1)Oc1cc(OC(C)=O)ccc1C21OC(=O)c2ccccc21 | inactive
C=CCN1C(=O)/C(=N/n2cnnc2)c2ccccc21 | inactive
COC(=O)c1c(-c2ccc(C)cc2)csc1NC(=O)c1c(-c2ccccc2)noc1C | inactive
O=C(NCCc1ccccc1)c1cccc(Br)n1 | inconclusive [inhibitor, full curve]
CC(=O)N1CCc2ccc(C(=O)CN3CCN(c4cccc(C)c4C)CC3)cc21 | inactive
CCOc1ccc(S(=O)(=O)n2ccc(C)n2)c2ccccc12 | inconclusive [activator, single point]
N/C(=N\OC(=O)CCCOc1ccccc1)c1ccc(Br)cc1 | inconclusive [activator, single point]
CCSc1ccc2nnc(-c3cccs3)n2n1 | inconclusive [activator, single point]

SMILES | Potency
O=C(COC(=O)c1ccccn1)Nc1ccccc1OC(F)F | inconclusive [inhibitor, single point]
Cc1cc(=O)c2ccc(Cl)cc2[nH]1 | inconclusive [inhibitor, single point]
O=C(Nc1ccc2ccccc2c1)C(c1ccccc1)C1CCCC1 (centres undefined) | inconclusive [activator, single point]
Cn1c(=O)n(C)c2cc(S(=O)(=O)NCc3ccccc3)ccc21 | inactive
CC1(C)CC(=O)C2=C(C1)NC1=C(C(=O)c3ccccc31)C2c1cc([N+](=O)[O-])ccc1O (centres undefined) | inconclusive [inhibitor, partial curve]
CCOc1nc(-c2ccccc2Cl)ccc1C#N | inconclusive [activator, partial curve]
COc1ccc(Cn2c(S(=O)(=O)CC(N)=O)nc3ccccc32)cc1[N+](=O)[O-] | inconclusive [activator, full curve, poor fit]
CSCC(C)N1CCC(CO)(CCCc2ccccc2)CC1 (centres undefined) | inconclusive [inhibitor, single point]
CCCCNC(=S)NNC(=O)c1nn(C)cc1Cl | inconclusive [activator, single point]
CC(C(=O)NCC1CCCCC1)N(C)Cc1cccc(Cl)c1 (centres undefined) | inconclusive [inhibitor, single point]
Fc1cccc(Cl)c1CNc1ccc(N2CCCC2)cc1 | inconclusive [inhibitor, partial curve]
COc1ccc(Cc2noc(COc3ccc(Cl)cc3)n2)cc1 | inconclusive [activator, single point]
O=C(O)/C=C/C(=O)NC1CC1 | inactive
CCOc1ccc(NC(=S)NNc2ccnc3cc(Cl)ccc23)cc1 | inconclusive [inhibitor, single point]
COc1ccc(NCc2nnc(SCC(=O)c3ccc(OC)cc3)n2C)cc1 | inconclusive [inhibitor, partial curve]
CN(C)C(CNC(C(=O)Nc1ccc([N+](=O)[O-])cc1Br)c1ccccc1)c1ccccc1 (centres undefined) | inactive
S=c1[nH]nc(-c2ccccn2)n1/N=C/c1ccccc1 | inconclusive [inhibitor, full curve, poor fit]
O=C(COC(=O)CCC1CCCC1)Nc1ccccc1Sc1ccccc1 | inconclusive [activator, partial curve]
COc1ccccc1[C@H]1C(c2cccc(Cl)c2)=NN(c2ccccc2)[C@@H]1CO | inconclusive [activator, partial curve]
CCCCCCCCC/C(=N\O)c1ccccn1 | inactive
Fc1ccc(N=C2NN=C(c3cc(F)ccc3F)CS2)cc1 | inconclusive [inhibitor, partial curve]
CSc1nnc(Cn2c(=O)sc3ccccc32)n1CCc1ccccc1 | inactive
CCC(C=C[C@@H]1OC(=O)C=C[C@H]1C)=C[C@H](C)CC=CC(C)=C[C@@H](C)C(=O)[C@@H](C)[C@H](O)[C@@H](C)CC(C)=CC(=O)O | inconclusive [inhibitor, single point]
